{"source": "the supplement of paper PMC8728848", "binders": {"B1": {"name": "Arath Fbox (Arabidopsis thaliana), NP_178341.1 (protein)", "chain": "EFTWGRKRRVKSESSPFDSFPEDCISYIISFTNPRDACVAATVSKTFESTVKSDIIWEKFLPADYESLIPPSRVFSSKKELYFSLCNDPVLFDDDKKSVWLEKASGKRCLMLSAMNLSIIWGDNPQYWQWIPIPESRFEKVAKLRDVCWFEIRGRTNTRVLSPRTRYSAYIVFKGVDKCYGFQNVAIEAAVGVVGQEPSRRLICFSEAIRRGRRNVVKPKQREDGWMEIELGEFFNDGGIMDNDEIEMSALETKQLNRKCGLIIQGIEIRPAKILAAAAASFLEQKLISEEDLNSAVDHHHHHH"}}, "test_in_all_cases": "glycan array binding signal (z-score within array); higher = stronger binding", "settings_in_all_cases": "glycan notation: IUPAC condensed, linker removed", "key": {"[1]": {"biological_target": "Fuc(a1-2)[GalNAc(b1-3)]Gal", "how_it_was_run": "(§1)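 The Consortium for Functional Glycomics database supplied 3228 glycan arrays, of which those lacking an available protein sequence were dropped. The binding signal, a within-array Z-score, was averaged across arrays of the same protein sequence and across linkers. Negative scores can be read as non-binding.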"}, "Fuc(a1-3)GlcNAc": {"biological_target": "Fuc(a1-3)GlcNAc", "how_it_was_run": "as §1"}, "[2]": {"biological_target": "Fuc(a1-3)[Gal(b1-4)]Glc6S", "how_it_was_run": "as §1"}, "[3]": {"biological_target": "Fuc(a1-3)[Gal(b1-4)]GlcNAc", "how_it_was_run": "as §1"}, "[4]": {"biological_target": "Fuc(a1-3)[Gal(b1-4)]GlcNAc(b1-2)Man", "how_it_was_run": "as §1"}, "[5]": {"biological_target": "Fuc(a1-3)[Gal(b1-4)]GlcNAc(b1-2)Man(a1-3)[Fuc(a1-3)[Gal(b1-4)]GlcNAc(b1-2)Man(a1-6)]Man(b1-4)GlcNAc(b1-4)GlcNAc", "how_it_was_run": "as §1"}, "[6]": {"biological_target": "Fuc(a1-3)[Gal(b1-4)]GlcNAc(b1-2)Man(a1-3)[Fuc(a1-3)[Gal(b1-4)]GlcNAc(b1-2)Man(a1-6)]Man(b1-4)GlcNAc(b1-4)[Fuc(a1-6)]GlcNAc", "how_it_was_run": "as §1"}, "[7]": {"biological_target": "Fuc(a1-3)[Gal(b1-4)]GlcNAc(b1-3)Gal(b1-3)[Fuc(a1-4)]GlcNAc", "how_it_was_run": "as §1"}, "[8]": {"biological_target": "Fuc(a1-3)[Gal(b1-4)]GlcNAc(b1-3)Gal(b1-4)[Fuc(a1-3)]GlcNAc", "how_it_was_run": "as §1"}, "[9]": {"biological_target": "Fuc(a1-3)[Gal(b1-4)]GlcNAc(b1-3)Gal(b1-4)[Fuc(a1-3)]GlcNAc(b1-3)Gal(b1-4)[Fuc(a1-3)]GlcNAc", "how_it_was_run": "as §1"}, "[10]": {"biological_target": "Fuc(a1-3)[Gal(b1-4)]GlcNAc(b1-3)GalNAc", "how_it_was_run": "as §1"}, "[11]": {"biological_target": "Fuc(a1-3)[Gal(b1-4)]GlcNAc(b1-6)GalNAc", "how_it_was_run": "as §1"}, "[12]": {"biological_target": "Fuc(a1-3)[Gal(b1-4)]GlcNAc(b1-6)[Gal(b1-3)GlcNAc(b1-3)]Gal(b1-4)Glc", "how_it_was_run": "as §1"}, "[13]": {"biological_target": "Fuc(a1-3)[Gal(b1-4)]GlcNAc6S", "how_it_was_run": "as §1"}, "[14]": {"biological_target": "Fuc(a1-3)[Gal3S(b1-4)]Glc", "how_it_was_run": "as §1"}, "[15]": {"biological_target": "Fuc(a1-3)[Gal3S(b1-4)]GlcNAc", "how_it_was_run": "as §1"}, "[16]": {"biological_target": "Fuc(a1-3)[Gal3S(b1-4)]GlcNAc6S", "how_it_was_run": "as §1"}, "[17]": {"biological_target": "Fuc(a1-3)[GalNAc(b1-4)]GlcNAc", "how_it_was_run": "as §1"}, "[18]": {"biological_target": "Fuc(a1-3)[GalNAc(b1-4)]GlcNAc6S", "how_it_was_run": "as §1"}, "Fuc(a1-4)GlcNAc": {"biological_target": "Fuc(a1-4)GlcNAc", "how_it_was_run": "as §1"}, "Fuc(b1-3)GlcNAc": {"biological_target": "Fuc(b1-3)GlcNAc", "how_it_was_run": "as §1"}, "Gal(a1-2)Gal": {"biological_target": "Gal(a1-2)Gal", "how_it_was_run": "as §1"}, "Gal(a1-3)Gal": {"biological_target": "Gal(a1-3)Gal", "how_it_was_run": "as §1"}, "Gal(a1-3)Gal(b1-3)GlcNAc": {"biological_target": "Gal(a1-3)Gal(b1-3)GlcNAc", "how_it_was_run": "as §1"}, "[19]": {"biological_target": "Gal(a1-3)Gal(b1-3)GlcNAc(b1-2)Man", "how_it_was_run": "as §1"}, "[20]": {"biological_target": "Gal(a1-3)Gal(b1-3)GlcNAc(b1-2)Man(a1-3)[Gal(a1-3)Gal(b1-3)GlcNAc(b1-2)Man(a1-6)]Man(b1-4)GlcNAc(b1-4)GlcNAc", "how_it_was_run": "as §1"}, "[21]": {"biological_target": "Gal(a1-3)Gal(b1-3)GlcNAc(b1-3)GalNAc", "how_it_was_run": "as §1"}, "[22]": {"biological_target": "Gal(a1-3)Gal(b1-3)GlcNAc(b1-6)GalNAc", "how_it_was_run": "as §1"}, "[23]": {"biological_target": "Gal(a1-3)Gal(b1-3)[Fuc(a1-4)]GlcNAc(b1-2)Man(a1-3)[Gal(a1-3)Gal(b1-3)[Fuc(a1-4)]GlcNAc(b1-2)Man(a1-6)]Man(b1-4)GlcNAc(b1-4)GlcNAc", "how_it_was_run": "as §1"}, "Gal(a1-3)Gal(b1-4)Glc": {"biological_target": "Gal(a1-3)Gal(b1-4)Glc", "how_it_was_run": "as §1"}, "Gal(a1-3)Gal(b1-4)GlcNAc": {"biological_target": "Gal(a1-3)Gal(b1-4)GlcNAc", "how_it_was_run": "as §1"}, "[24]": {"biological_target": "Gal(a1-3)Gal(b1-4)GlcNAc(b1-2)Man", "how_it_was_run": "as §1"}, "[25]": {"biological_target": "Gal(a1-3)Gal(b1-4)GlcNAc(b1-2)Man(a1-3)[Gal(a1-3)Gal(b1-4)GlcNAc(b1-2)Man(a1-6)]Man(b1-4)GlcNAc(b1-4)GlcNAc", "how_it_was_run": "as §1"}, "[26]": {"biological_target": "Gal(a1-3)Gal(b1-4)GlcNAc(b1-3)GalNAc", "how_it_was_run": "as §1"}, "[27]": {"biological_target": "Gal(a1-3)Gal(b1-4)GlcNAc(b1-6)GalNAc", "how_it_was_run": "as §1"}, "[28]": {"biological_target": "Gal(a1-3)Gal(b1-4)[Fuc(a1-3)]GlcNAc", "how_it_was_run": "as §1"}, "[29]": {"biological_target": "Gal(a1-3)Gal(b1-4)[Fuc(a1-3)]GlcNAc(b1-2)Man(a1-3)[Gal(a1-3)Gal(b1-4)[Fuc(a1-3)]GlcNAc(b1-2)Man(a1-6)]Man(b1-4)GlcNAc(b1-4)GlcNAc", "how_it_was_run": "as §1"}}, "note": "This is one part of the list."}
{"binder": "B1", "values": [{"measurement": "glycan array binding signal (z-score)", "setting": "[1]", "result": -0.288}, {"measurement": "glycan array binding signal (z-score)", "setting": "Fuc(a1-3)GlcNAc", "result": 0.046}, {"measurement": "glycan array binding signal (z-score)", "setting": "[2]", "result": 2.06}, {"measurement": "glycan array binding signal (z-score)", "setting": "[3]", "result": -0.12}, {"measurement": "glycan array binding signal (z-score)", "setting": "[4]", "result": -0.173}, {"measurement": "glycan array binding signal (z-score)", "setting": "[5]", "result": 1.77}, {"measurement": "glycan array binding signal (z-score)", "setting": "[6]", "result": 0.433}, {"measurement": "glycan array binding signal (z-score)", "setting": "[7]", "result": -0.705}, {"measurement": "glycan array binding signal (z-score)", "setting": "[8]", "result": -0.261}, {"measurement": "glycan array binding signal (z-score)", "setting": "[9]", "result": 0.559}, {"measurement": "glycan array binding signal (z-score)", "setting": "[10]", "result": -0.303}, {"measurement": "glycan array binding signal (z-score)", "setting": "[11]", "result": 0.534}, {"measurement": "glycan array binding signal (z-score)", "setting": "[12]", "result": -0.589}, {"measurement": "glycan array binding signal (z-score)", "setting": "[13]", "result": -0.353}, {"measurement": "glycan array binding signal (z-score)", "setting": "[14]", "result": -0.311}, {"measurement": "glycan array binding signal (z-score)", "setting": "[15]", "result": 0.068}, {"measurement": "glycan array binding signal (z-score)", "setting": "[16]", "result": -0.591}, {"measurement": "glycan array binding signal (z-score)", "setting": "[17]", "result": -0.567}, {"measurement": "glycan array binding signal (z-score)", "setting": "[18]", "result": -0.504}, {"measurement": "glycan array binding signal (z-score)", "setting": "Fuc(a1-4)GlcNAc", "result": -0.702}, {"measurement": "glycan array binding signal (z-score)", "setting": "Fuc(b1-3)GlcNAc", "result": -0.389}, {"measurement": "glycan array binding signal (z-score)", "setting": "Gal(a1-2)Gal", "result": 0.171}, {"measurement": "glycan array binding signal (z-score)", "setting": "Gal(a1-3)Gal", "result": -0.35}, {"measurement": "glycan array binding signal (z-score)", "setting": "Gal(a1-3)Gal(b1-3)GlcNAc", "result": 12}, {"measurement": "glycan array binding signal (z-score)", "setting": "[19]", "result": 0.956}, {"measurement": "glycan array binding signal (z-score)", "setting": "[20]", "result": 1.17}, {"measurement": "glycan array binding signal (z-score)", "setting": "[21]", "result": -0.242}, {"measurement": "glycan array binding signal (z-score)", "setting": "[22]", "result": -0.119}, {"measurement": "glycan array binding signal (z-score)", "setting": "[23]", "result": 3.32}, {"measurement": "glycan array binding signal (z-score)", "setting": "Gal(a1-3)Gal(b1-4)Glc", "result": 0.415}, {"measurement": "glycan array binding signal (z-score)", "setting": "Gal(a1-3)Gal(b1-4)GlcNAc", "result": -0.461}, {"measurement": "glycan array binding signal (z-score)", "setting": "[24]", "result": -0.588}, {"measurement": "glycan array binding signal (z-score)", "setting": "[25]", "result": 1.57}, {"measurement": "glycan array binding signal (z-score)", "setting": "[26]", "result": -0.652}, {"measurement": "glycan array binding signal (z-score)", "setting": "[27]", "result": -0.593}, {"measurement": "glycan array binding signal (z-score)", "setting": "[28]", "result": -0.11}, {"measurement": "glycan array binding signal (z-score)", "setting": "[29]", "result": 0.161}]}
